Data reported in patent publication US20150344570A1.
“And” between values parts separate entries of the source, which are not always exact repeats. Identical values can stand only once.

B1: GpH7-A5/GpH7-B12/GpL16-k0 (antibody, human IgG1, kappa)
heavy 1: QVQLVQSGAEVKKPGASVTVSCKASGYTFTDYEMHWIRQPPGEGLEWIGAIDPKTGDTAYSESFQDRVTLTADKSTSTAYMELSSLTSEDTAVYYCTRFYSYTYWGQGTLVTVSS[human IgG1 constant region with D356K H435R (EU numbers) not spelt out]
heavy 2: QVQLVQSGAEVKKPGASVTVSCKASGYTFTDYEMHWIRQPPGEGLEWIGAIDPKTGDTAYSESFQDRVTLTADKSTSTAYMELSSLTSEDTAVYYCTRFYSYTYWGQGTLVTVSS[human IgG1 constant region with P329R K439E (EU numbers) not spelt out]
light: DIVMTQSPLSLPVTPGEPASISCQASESLVHSNRNTYLHWYLQKPGQSPQLLIYKVSNRFSGVPDRFSGSGSGTDFTLKISRVEAEDVGVYYCSQNTHVPPTFGQGTKVEIERTVAAPSVFIFPPSDEQLKSGTASVVCLLNNFYPREAKVQWKVDNALQSGNSQESVTEQDSKDSTYSLSSTLTLSKADYEKHKVYACEVTHQGLSSPVTKSFNRGEC
B2: GpH7-A5/GpL16-k0 (antibody, human IgG1, kappa)
heavy: B1 heavy 1
light: B1 light
B3: GpH7-A5/GpH7-B13/GpL16-k0 (antibody, human IgG1, kappa)
heavy 1: B1 heavy 1
heavy 2: QVQLVQSGAEVKKPGASVTVSCKASGYTFTDYEMHWIRQPPGEGLEWIGAIDPKTGDTAYSESFQDRVTLTADKSTSTAYMELSSLTSEDTAVYYCTRFYSYTYWGQGTLVTVSS[human IgG1 constant region with P329K K439E (EU numbers) not spelt out]
light: B1 light
B4: GpH7-A5/GpH7-B14/GpL16-k0 (antibody, human IgG1, kappa)
heavy 1: B1 heavy 1
heavy 2: QVQLVQSGAEVKKPGASVTVSCKASGYTFTDYEMHWIRQPPGEGLEWIGAIDPKTGDTAYSESFQDRVTLTADKSTSTAYMELSSLTSEDTAVYYCTRFYSYTYWGQGTLVTVSS[human IgG1 constant region with P329D K439E (EU numbers) not spelt out]
light: B1 light
B5: GpH7-A5/GpH7-B15/GpL16-k0 (antibody, human IgG1, kappa)
heavy 1: B1 heavy 1
heavy 2: QVQLVQSGAEVKKPGASVTVSCKASGYTFTDYEMHWIRQPPGEGLEWIGAIDPKTGDTAYSESFQDRVTLTADKSTSTAYMELSSLTSEDTAVYYCTRFYSYTYWGQGTLVTVSS[human IgG1 constant region with P329E K439E (EU numbers) not spelt out]
light: B1 light
B6: GpH7-B3/GpL16-k0 (antibody, human IgG1, kappa)
heavy: QVQLVQSGAEVKKPGASVTVSCKASGYTFTDYEMHWIRQPPGEGLEWIGAIDPKTGDTAYSESFQDRVTLTADKSTSTAYMELSSLTSEDTAVYYCTRFYSYTYWGQGTLVTVSS[human IgG1 constant region with K439E (EU numbers) not spelt out]
light: B1 light

Tests used:
each FcγR = test: SPR (Biacore), relative binding
FcγR other than FcγRIa = test: SPR (Biacore), relative binding

Row | Binder | FcγR-binding activity relative to GpH7-A5/GpH7-B3/GpL16-k0 (each FcγR) | binding activity relative to GpH7-G1d/GpL16-k0 (each FcγR) [%] | FcγR-binding activity relative to GpH7-A5/GpH7-B3/GpL16-k0 (FcγR other than FcγRIa) [%]
1 | B1 | 0.2 fold and 0.25 fold | – | –
2 | B2 | – | > 80 | –
3 | B3 | 0.2 fold and 0.25 fold | – | –
4 | B4 | – | – | > 50
5 | B5 | – | – | > 50
6 | B6 | – | > 80 | –
